These are yes or no findings as the source states them, for the method shown. For part of these data: In cells and extracts the contact can be indirect. Some results given as binding are weak or reduced against the parent protein; the word gives no strength.
B1: MAD1 (endogenous, mitotic HeLa cells) (protein, UniProt Q9Y6D9 1-718)
chain: MEDLGENTMVLSTLRSLNNFISQRVEGGSGLDISTSAPGSLQMQYQQSMQLEERAEQIRSKSHLIQVEREKMQMELSHKRARVELERAASTSARNYEREVDRNQELLTRIRQLQEREAGAEEKMQEQLERNRQCQQNLDAASKRLREKEDSLAQAGETINALKGRISELQWSVMDQEMRVKRLESEKQELQEQLDLQHKKCQEANQKIQELQASQEARADHEQQIKDLEQKLSLQEQDAAIVKNMKSELVRLPRLERELKQLREESAHLREMRETNGLLQEELEGLQRKLGRQEKMQETLVGLELENERLLAKLQSWERLDQTMGLSIRTPEDLSRFVVELQQRELALKDKNSAVTSSARGLEKARQQLQEELRQVSGQLLEERKKRETHEALARRLQKRVLLLTKERDGMRAILGSYDSELTPAEYSPQLTRRMREAEDMVQKVHSHSAEMEAQLSQALEELGGQKQRADMLEMELKMLKSQSSSAEQSFLFSREEADTLRLKVEELEGERSRLEEEKRMLEAQLERRALQGDYDQSRTKVLHMSLNPTSVARQRLREDHSQLQAECERLRGLLRAMERGGTVPADLEAAAASLPSSKEVAELKKQVESAELKNQRLKEVFQTKIQEFRKACYTLTGYQIDITTENQYRLTSLYAEHPGDCLIFKATSPSGSKMQLLETEFSHTVGELIEVHLRRQDSIPAFLSSLTLELFSRQTVA
B2: Aurora A (endogenous, mitotic HeLa cells) (enzyme, UniProt O14965 1-403)
chain: MDRSKENCISGPVKATAPVGGPKRVLVTQQFPCQNPLPVNSGQAQRVLCPSNSSQRIPLQAQKLVSSHKPVQNQKQKQLQATSVPHPVSRPLNNTQKSKQPLPSAPENNPEEELASKQKNEESKKRQWALEDFEIGRPLGKGKFGNVYLAREKQSKFILALKVLFKAQLEKAGVEHQLRREVEIQSHLRHPNILRLYGYFHDATRVYLILEYAPLGTVYRELQKLSKFDEQRTATYITELANALSYCHSKRVIHRDIKPENLLLGSAGELKIADFGWSVHAPSSRRTTLCGTLDYLPPEMIEGRMHDEKVDLWSLGVLCYEFLVGKPPFEANTYQETYKRISRVEFTFPDFVTEGARDLISRLLKHNPSQRPMLREVLEHPWITANSSKPSNCQNKESASKQS
B3: phospho Threonine 288 Aurora A (endogenous, mitotic HeLa cells) (enzyme, UniProt O14965 1-403)
chain: B2 chain
modifications: phosphothreonine at 288

Amino acid sequences for entries named in this document (tags omitted). Residues count along the entry.
UniProt Q9UEE9: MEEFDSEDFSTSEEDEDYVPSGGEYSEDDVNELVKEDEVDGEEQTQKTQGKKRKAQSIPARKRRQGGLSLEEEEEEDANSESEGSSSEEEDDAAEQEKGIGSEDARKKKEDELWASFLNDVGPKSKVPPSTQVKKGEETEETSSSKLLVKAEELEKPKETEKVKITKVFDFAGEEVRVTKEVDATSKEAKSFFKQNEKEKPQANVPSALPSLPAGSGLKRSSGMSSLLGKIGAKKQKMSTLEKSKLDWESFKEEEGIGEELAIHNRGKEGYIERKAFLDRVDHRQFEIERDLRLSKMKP
UniProt Q14974: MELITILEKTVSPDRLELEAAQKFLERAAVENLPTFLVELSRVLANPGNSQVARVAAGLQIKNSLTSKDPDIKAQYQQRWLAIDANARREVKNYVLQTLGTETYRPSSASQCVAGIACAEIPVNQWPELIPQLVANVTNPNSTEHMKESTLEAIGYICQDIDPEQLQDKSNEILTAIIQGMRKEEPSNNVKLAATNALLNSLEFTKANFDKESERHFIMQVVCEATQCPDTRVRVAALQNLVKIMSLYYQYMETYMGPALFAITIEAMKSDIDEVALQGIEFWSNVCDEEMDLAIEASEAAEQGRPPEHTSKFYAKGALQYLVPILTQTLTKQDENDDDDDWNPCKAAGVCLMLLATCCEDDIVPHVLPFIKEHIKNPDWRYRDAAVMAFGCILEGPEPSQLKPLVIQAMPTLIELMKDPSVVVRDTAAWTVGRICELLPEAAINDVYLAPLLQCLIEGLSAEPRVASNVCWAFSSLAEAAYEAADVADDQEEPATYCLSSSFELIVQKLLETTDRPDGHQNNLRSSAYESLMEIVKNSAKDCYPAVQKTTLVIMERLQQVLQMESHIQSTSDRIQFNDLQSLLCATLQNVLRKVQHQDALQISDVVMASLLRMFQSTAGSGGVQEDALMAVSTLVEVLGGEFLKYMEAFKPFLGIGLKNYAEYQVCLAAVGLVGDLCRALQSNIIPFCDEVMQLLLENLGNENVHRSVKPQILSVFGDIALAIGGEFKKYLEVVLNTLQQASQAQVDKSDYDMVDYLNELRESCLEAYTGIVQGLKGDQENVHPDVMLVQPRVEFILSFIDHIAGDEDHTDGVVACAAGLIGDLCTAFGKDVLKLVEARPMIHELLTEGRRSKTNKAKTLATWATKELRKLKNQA
UniProt Q9NQS7: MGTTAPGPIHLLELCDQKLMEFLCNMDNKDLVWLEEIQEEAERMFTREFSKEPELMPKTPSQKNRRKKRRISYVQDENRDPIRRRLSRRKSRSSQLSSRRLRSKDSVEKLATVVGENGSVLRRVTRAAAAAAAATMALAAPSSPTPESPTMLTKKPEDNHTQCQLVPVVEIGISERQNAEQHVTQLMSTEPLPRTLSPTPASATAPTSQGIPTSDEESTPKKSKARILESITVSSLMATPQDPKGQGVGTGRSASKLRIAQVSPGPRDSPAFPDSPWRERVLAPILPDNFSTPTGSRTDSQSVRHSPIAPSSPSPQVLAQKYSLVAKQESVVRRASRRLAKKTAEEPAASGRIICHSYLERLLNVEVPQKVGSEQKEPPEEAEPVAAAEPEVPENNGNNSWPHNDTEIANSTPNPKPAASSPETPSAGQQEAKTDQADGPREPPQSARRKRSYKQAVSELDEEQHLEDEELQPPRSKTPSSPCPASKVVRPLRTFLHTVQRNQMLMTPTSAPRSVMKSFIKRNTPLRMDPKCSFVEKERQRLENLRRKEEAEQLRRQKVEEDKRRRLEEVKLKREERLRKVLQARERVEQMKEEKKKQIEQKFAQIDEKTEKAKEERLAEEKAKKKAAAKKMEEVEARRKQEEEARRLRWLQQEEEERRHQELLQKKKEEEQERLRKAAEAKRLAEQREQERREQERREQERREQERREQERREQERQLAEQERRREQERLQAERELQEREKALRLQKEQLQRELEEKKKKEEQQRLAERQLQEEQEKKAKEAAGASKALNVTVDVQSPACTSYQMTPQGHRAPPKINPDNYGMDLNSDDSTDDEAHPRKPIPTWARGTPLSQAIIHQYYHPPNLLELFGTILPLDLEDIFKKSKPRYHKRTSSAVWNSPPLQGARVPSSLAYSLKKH
UniProt O43684: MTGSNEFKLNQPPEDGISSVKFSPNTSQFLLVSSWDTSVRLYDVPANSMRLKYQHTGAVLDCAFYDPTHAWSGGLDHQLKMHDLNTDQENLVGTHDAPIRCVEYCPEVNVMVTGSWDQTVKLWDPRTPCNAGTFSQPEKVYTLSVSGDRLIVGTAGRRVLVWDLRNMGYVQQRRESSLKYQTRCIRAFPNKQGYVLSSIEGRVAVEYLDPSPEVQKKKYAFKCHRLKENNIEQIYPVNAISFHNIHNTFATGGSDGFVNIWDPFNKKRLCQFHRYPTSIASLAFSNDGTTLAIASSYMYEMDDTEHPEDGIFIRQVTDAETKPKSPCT
UniProt Q96GD4: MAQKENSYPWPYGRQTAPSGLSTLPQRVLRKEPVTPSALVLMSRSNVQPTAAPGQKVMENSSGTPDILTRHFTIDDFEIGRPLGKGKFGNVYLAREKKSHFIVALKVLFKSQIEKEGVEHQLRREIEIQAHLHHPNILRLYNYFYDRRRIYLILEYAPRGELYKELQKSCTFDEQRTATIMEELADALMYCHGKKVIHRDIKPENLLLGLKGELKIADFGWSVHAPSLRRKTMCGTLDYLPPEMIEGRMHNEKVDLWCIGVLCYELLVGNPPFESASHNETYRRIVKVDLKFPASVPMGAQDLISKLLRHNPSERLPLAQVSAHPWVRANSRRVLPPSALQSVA
UniProt O88271, residues 1-150: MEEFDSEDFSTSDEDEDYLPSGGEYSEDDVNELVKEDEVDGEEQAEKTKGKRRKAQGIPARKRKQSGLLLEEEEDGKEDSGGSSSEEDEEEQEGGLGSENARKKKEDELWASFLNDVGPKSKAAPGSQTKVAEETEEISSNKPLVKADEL
UniProt Q9ULW0: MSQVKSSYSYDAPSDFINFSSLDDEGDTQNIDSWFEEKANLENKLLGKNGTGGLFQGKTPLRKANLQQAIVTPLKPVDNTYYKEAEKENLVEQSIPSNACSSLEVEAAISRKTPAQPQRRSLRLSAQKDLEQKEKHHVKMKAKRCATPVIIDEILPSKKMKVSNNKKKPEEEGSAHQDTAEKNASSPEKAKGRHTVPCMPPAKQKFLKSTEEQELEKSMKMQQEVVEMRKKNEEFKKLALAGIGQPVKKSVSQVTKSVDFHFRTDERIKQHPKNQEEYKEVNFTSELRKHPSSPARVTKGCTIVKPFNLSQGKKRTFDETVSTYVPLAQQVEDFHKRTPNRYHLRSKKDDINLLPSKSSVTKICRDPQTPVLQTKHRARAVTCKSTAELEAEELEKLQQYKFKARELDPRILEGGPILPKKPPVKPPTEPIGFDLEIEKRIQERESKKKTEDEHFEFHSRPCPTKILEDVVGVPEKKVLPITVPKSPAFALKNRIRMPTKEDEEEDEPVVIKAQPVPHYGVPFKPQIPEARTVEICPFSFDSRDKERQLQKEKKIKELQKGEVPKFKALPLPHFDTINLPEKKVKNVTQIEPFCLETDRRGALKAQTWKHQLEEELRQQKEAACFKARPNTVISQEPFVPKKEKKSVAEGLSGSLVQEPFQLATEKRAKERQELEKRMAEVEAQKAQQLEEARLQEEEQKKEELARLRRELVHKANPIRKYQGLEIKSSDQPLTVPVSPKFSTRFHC

Assays:
[1] = biological target: CFDP1 (endogenous, mitotic HeLa cells) (human (endogenous in HeLa)) (UniProt Q9UEE9); assay: co-IP; anti-CFDP1 antibody (mouse IgG as control), cytosolic and chromatin extracts of mitotic HeLa cells, overnight at 4°C, Dynabeads Protein G, wash with 250 mM NaCl, 0.1% NP40; immunoblot
[2] = biological target: GST-TPX2 NLS fusion protein (mouse TPX2 amino acids 302-322) (mouse) (UniProt A2APB8); assay: pull-down; GST-TPX2 NLS immobilized on magnetic glutathione particles, incubated with CFDP1 proteins in transfer buffer (20 mM Hepes pH 7.4, 110 mM potassium acetate, 2 mM magnesium acetate, 20% glycerol), 1 h at 4°C; immunoblot; both purified

Molecule | binding [1] | binding [2]
importin β (endogenous, mitotic HeLa cells) (from UniProt Q14974 1-876) | binds | 
INCENP (endogenous, mitotic HeLa cells) (from UniProt Q9NQS7 1-918) | binds | 
BUB3 (endogenous, mitotic HeLa cells) (from UniProt O43684 1-328) | binds | 
Aurora B kinase (endogenous, mitotic HeLa cells) (from UniProt Q96GD4 1-344) (enzyme) | binds | 
CFDP1 acidic N-terminal fragment (aa 1-150), HIS tagged (from UniProt O88271 1-150) (domain or fragment) |  | binds weakly
TPX2 (endogenous, mitotic HeLa cells) (from UniProt Q9ULW0 1-747) | binds | 
B1 | binds | 
B2 | no binding | 
B3 | no binding | 
